# Data from the supplement of paper PMC8728848.
# This is one part of the list.
# B1: PX9961X-pdi-531-24-531 (Parabacteroides distasonis) (protein)
# chain: DLTEEIHSSVIAENYYNNAGEVMAAMMRPWGHFCGTMQVAQSPWSCNELSSDCAAWPQKGRHGYDNGDWIRLHRHQWIPTDGQVVDAWKKLFEGIGYANNFLTDTENIDFEALQVPMSKAQAQAEMRVYRAYCYWYVMDMFGTAPICEKIGEINPSSKSRAELFAWIEKELNESIPSLSESKTETYGRVSKWGAYALLARLYLNAEIYTGQARWDDCIAACDELAKGGFALDKKWNDTFRADNDKRSTEIIWSIVYDEVYAKGMGWYQRWLHYAHQTGWDLQSGPWNGLVTQPTFYDSFADNDLRKIEGFLIGKQYPRKVDENGNYYYDTTAEPLKGSEEYNGQDLVFVNYIKSMTEGEENSGARSIKYEIQPGTTGDMNNDWVMFRYSEVIYNKAEALMRKNGGKATQEVVDMINSVRQRSFKAEDWEKAKYTTATLTMDEFLAEKGREFAFEGIRRTDLVRFNKFVTTSWWDKTASNEPKRNIFPIPQRQLDANANLSPNEANSLF
# Key:
# Experiment in all cases: glycan array binding signal (z-score within array); higher = stronger binding
# Conditions in all cases: glycan notation: IUPAC condensed, linker removed
# [1] = biological target: Fuc(a1-2)[GalNAc(a1-3)]Gal(b1-3)GlcNAc(b1-6)GalNAc
# Procedure, shortened: (§1)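 From the Consortium for Functional Glycomics database, 3228 arrays were curated, keeping only those whose protein sequence was available. Binding is given as a within-array Z-score averaged across arrays sharing a protein sequence and across linkers. Negative Z-scores can be read as non-binding.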
# [2] = biological target: Fuc(a1-2)[GalNAc(a1-3)]Gal(b1-4)Glc
# Procedure, shortened: as §1
# [3] = biological target: Fuc(a1-2)[GalNAc(a1-3)]Gal(b1-4)GlcNAc
# Procedure, shortened: as §1
# [4] = biological target: Fuc(a1-2)[GalNAc(a1-3)]Gal(b1-4)GlcNAc(b1-2)Man
# Procedure, shortened: as §1
# [5] = biological target: Fuc(a1-2)[GalNAc(a1-3)]Gal(b1-4)GlcNAc(b1-2)Man(a1-3)[Fuc(a1-2)[GalNAc(a1-3)]Gal(b1-4)GlcNAc(b1-2)Man(a1-6)]Man(b1-4)GlcNAc(b1-4)GlcNAc
# Procedure, shortened: as §1
# [6] = biological target: Fuc(a1-2)[GalNAc(a1-3)]Gal(b1-4)GlcNAc(b1-2)Man(a1-3)[Fuc(a1-2)[GalNAc(a1-3)]Gal(b1-4)GlcNAc(b1-2)Man(a1-6)]Man(b1-4)GlcNAc(b1-4)[Fuc(a1-6)]GlcNAc
# Procedure, shortened: as §1
# [7] = biological target: Fuc(a1-2)[GalNAc(a1-3)]Gal(b1-4)GlcNAc(b1-3)Gal(b1-4)GlcNAc
# Procedure, shortened: as §1
# [8] = biological target: Fuc(a1-2)[GalNAc(a1-3)]Gal(b1-4)GlcNAc(b1-3)Gal(b1-4)GlcNAc(b1-3)Gal(b1-4)GlcNAc
# Procedure, shortened: as §1
# [9] = biological target: Fuc(a1-2)[GalNAc(a1-3)]Gal(b1-4)GlcNAc(b1-3)GalNAc
# Procedure, shortened: as §1
# [10] = biological target: Fuc(a1-2)[GalNAc(a1-3)]Gal(b1-4)GlcNAc(b1-3)[Fuc(a1-2)[GalNAc(a1-3)]Gal(b1-4)GlcNAc(b1-6)]GalNAc
# Procedure, shortened: as §1
# [11] = biological target: Fuc(a1-2)[GalNAc(a1-3)]Gal(b1-4)GlcNAc(b1-6)GalNAc
# Procedure, shortened: as §1
# [12] = biological target: Fuc(a1-2)[GalNAc(a1-3)]Gal(b1-4)[Fuc(a1-3)]GlcNAc
# Procedure, shortened: as §1
# [13] = biological target: Fuc(a1-2)[GalNAc(a1-3)]Gal(b1-4)[Fuc(a1-3)]GlcNAc(b1-3)GalNAc
# Procedure, shortened: as §1
# [14] = biological target: Fuc(a1-2)[GalNAc(a1-4)]Gal(b1-4)GlcNAc
# Procedure, shortened: as §1
# [15] = biological target: Fuc(a1-2)[GalNAc(b1-3)]Gal
# Procedure, shortened: as §1
# [16] = biological target: Fuc(a1-3)GlcNAc
# Procedure, shortened: as §1
# [17] = biological target: Fuc(a1-3)[Gal(b1-4)]Glc6S
# Procedure, shortened: as §1
# [18] = biological target: Fuc(a1-3)[Gal(b1-4)]GlcNAc
# Procedure, shortened: as §1
# [19] = biological target: Fuc(a1-3)[Gal(b1-4)]GlcNAc(b1-2)Man
# Procedure, shortened: as §1
# [20] = biological target: Fuc(a1-3)[Gal(b1-4)]GlcNAc(b1-2)Man(a1-3)[Fuc(a1-3)[Gal(b1-4)]GlcNAc(b1-2)Man(a1-6)]Man(b1-4)GlcNAc(b1-4)GlcNAc
# Procedure, shortened: as §1
# [21] = biological target: Fuc(a1-3)[Gal(b1-4)]GlcNAc(b1-2)Man(a1-3)[Fuc(a1-3)[Gal(b1-4)]GlcNAc(b1-2)Man(a1-6)]Man(b1-4)GlcNAc(b1-4)[Fuc(a1-6)]GlcNAc
# Procedure, shortened: as §1
# [22] = biological target: Fuc(a1-3)[Gal(b1-4)]GlcNAc(b1-3)Gal(b1-3)[Fuc(a1-4)]GlcNAc
# Procedure, shortened: as §1
# [23] = biological target: Fuc(a1-3)[Gal(b1-4)]GlcNAc(b1-3)Gal(b1-4)[Fuc(a1-3)]GlcNAc
# Procedure, shortened: as §1
# [24] = biological target: Fuc(a1-3)[Gal(b1-4)]GlcNAc(b1-3)Gal(b1-4)[Fuc(a1-3)]GlcNAc(b1-3)Gal(b1-4)[Fuc(a1-3)]GlcNAc
# Procedure, shortened: as §1
# [25] = biological target: Fuc(a1-3)[Gal(b1-4)]GlcNAc(b1-3)GalNAc
# Procedure, shortened: as §1
# [26] = biological target: Fuc(a1-3)[Gal(b1-4)]GlcNAc(b1-6)GalNAc
# Procedure, shortened: as §1
# [27] = biological target: Fuc(a1-3)[Gal(b1-4)]GlcNAc(b1-6)[Gal(b1-3)GlcNAc(b1-3)]Gal(b1-4)Glc
# Procedure, shortened: as §1
# [28] = biological target: Fuc(a1-3)[Gal(b1-4)]GlcNAc6S
# Procedure, shortened: as §1
# [29] = biological target: Fuc(a1-3)[Gal3S(b1-4)]Glc
# Procedure, shortened: as §1
# [30] = biological target: Fuc(a1-3)[Gal3S(b1-4)]GlcNAc
# Procedure, shortened: as §1
# [31] = biological target: Fuc(a1-3)[Gal3S(b1-4)]GlcNAc6S
# Procedure, shortened: as §1
# [32] = biological target: Fuc(a1-3)[GalNAc(b1-4)]GlcNAc
# Procedure, shortened: as §1
# [33] = biological target: Fuc(a1-3)[GalNAc(b1-4)]GlcNAc6S
# Procedure, shortened: as §1
# [34] = biological target: Fuc(a1-4)GlcNAc
# Procedure, shortened: as §1
# [35] = biological target: Fuc(b1-3)GlcNAc
# Procedure, shortened: as §1
# [36] = biological target: Gal(a1-2)Gal
# Procedure, shortened: as §1
# [37] = biological target: Gal(a1-3)Gal
# Procedure, shortened: as §1
# [38] = biological target: Gal(a1-3)Gal(b1-3)GlcNAc
# Procedure, shortened: as §1
# [39] = biological target: Gal(a1-3)Gal(b1-3)GlcNAc(b1-2)Man
# Procedure, shortened: as §1
# [40] = biological target: Gal(a1-3)Gal(b1-3)GlcNAc(b1-2)Man(a1-3)[Gal(a1-3)Gal(b1-3)GlcNAc(b1-2)Man(a1-6)]Man(b1-4)GlcNAc(b1-4)GlcNAc
# Procedure, shortened: as §1
# [41] = biological target: Gal(a1-3)Gal(b1-3)GlcNAc(b1-3)GalNAc
# Procedure, shortened: as §1
# [42] = biological target: Gal(a1-3)Gal(b1-3)GlcNAc(b1-6)GalNAc
# Procedure, shortened: as §1
# [43] = biological target: Gal(a1-3)Gal(b1-3)[Fuc(a1-4)]GlcNAc(b1-2)Man(a1-3)[Gal(a1-3)Gal(b1-3)[Fuc(a1-4)]GlcNAc(b1-2)Man(a1-6)]Man(b1-4)GlcNAc(b1-4)GlcNAc
# Procedure, shortened: as §1
# [44] = biological target: Gal(a1-3)Gal(b1-4)Glc
# Procedure, shortened: as §1
# [45] = biological target: Gal(a1-3)Gal(b1-4)GlcNAc
# Procedure, shortened: as §1
binder,measurement,setting,value
B1,glycan array binding signal (z-score),[1],0.48
same,glycan array binding signal (z-score),[2],-0.693
same,glycan array binding signal (z-score),[3],-0.339
same,glycan array binding signal (z-score),[4],-0.718
same,glycan array binding signal (z-score),[5],0.31
same,glycan array binding signal (z-score),[6],-0.515
same,glycan array binding signal (z-score),[7],-0.746
same,glycan array binding signal (z-score),[8],0.379
same,glycan array binding signal (z-score),[9],-0.512
same,glycan array binding signal (z-score),[10],-0.301
same,glycan array binding signal (z-score),[11],-0.238
same,glycan array binding signal (z-score),[12],-0.381
same,glycan array binding signal (z-score),[13],0.235
same,glycan array binding signal (z-score),[14],-0.322
same,glycan array binding signal (z-score),[15],-0.449
same,glycan array binding signal (z-score),[16],-0.392
same,glycan array binding signal (z-score),[17],0.852
same,glycan array binding signal (z-score),[18],-0.632
same,glycan array binding signal (z-score),[19],-0.722
same,glycan array binding signal (z-score),[20],-0.76
same,glycan array binding signal (z-score),[21],0.695
same,glycan array binding signal (z-score),[22],0.132
same,glycan array binding signal (z-score),[23],-0.525
same,glycan array binding signal (z-score),[24],0.016
same,glycan array binding signal (z-score),[25],-0.752
same,glycan array binding signal (z-score),[26],0.157
same,glycan array binding signal (z-score),[27],-0.143
same,glycan array binding signal (z-score),[28],0.02
same,glycan array binding signal (z-score),[29],0.374
same,glycan array binding signal (z-score),[30],-0.162
same,glycan array binding signal (z-score),[31],-0.332
same,glycan array binding signal (z-score),[32],-0.216
same,glycan array binding signal (z-score),[33],0.062
same,glycan array binding signal (z-score),[34],-0.106
same,glycan array binding signal (z-score),[35],-0.274
same,glycan array binding signal (z-score),[36],-0.905
same,glycan array binding signal (z-score),[37],0.005
same,glycan array binding signal (z-score),[38],-0.509
same,glycan array binding signal (z-score),[39],0.703
same,glycan array binding signal (z-score),[40],3.82
same,glycan array binding signal (z-score),[41],-0.241
same,glycan array binding signal (z-score),[42],-0.644
same,glycan array binding signal (z-score),[43],1.94
same,glycan array binding signal (z-score),[44],0.702
same,glycan array binding signal (z-score),[45],-0.035
